Here are results for 1 molecule from patent publication US9278107B2, “Antibacterial agent composition and antiviral agent composition comprising silicon-containing compound; antibacterializing method, cleaning/mouth rinsing method; method for fixing antibacterial agent and antiviral agent” (Hiroshima University, priority 2008, dated 2016).

This series relates to Escherichia coli WP2uvrA and Salmonella typhimurium TA series strains (TA100, TA1535, TA98 and TA1537). The following applies: positive control, in the presence of S9mix.

On to `Nc1ccc2cc3ccccc3cc2c1` [2-Aminoanthracene], for which the reverse mutation entry is recorded as “obvious reverse mutation”.
